# Biological target: F-actin (actin from rabbit muscle, polymerized) (rabbit, UniProt P68135)
# Assay: co-sedimentation; 5 μg CFL1 protein with 10 μg F-actin in 200 μl of 10 mM Tris-HCl (pH 8.0), 30 min at room temperature; 100,000 × g at 4 °C for 30 min; supernatant and pellet on SDS-PAGE, CBB stain
# Details: both partners purified
binder,measurement,value
"purified recombinant CFL1^2KR (K112R/K114R) (natural protein, cofilin-1 (CFL1), mouse, K112R/K114R; The methods describe one way of purification for the wild type and all mutants; source: E. coli BL21 (DE3), purified; not shown: 6xHis, N-terminal, cleaved; SUMO3, N-terminal, cleaved) not shown",binding result,binds

# Reference: publication PMC10502023, “N-terminal α-amino SUMOylation of cofilin-1 is critical for its regulation of actin depolymerization” (Nature Communications, 2023)
